The full ranking holds about 110,000 compounds; the median of “z-score” is about -0.1, and the highest 2% start at about 2. Some of the results follow. Activity calls are given as the source filed them.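 Rule for the calls: active = z-score in the third read window above 3 or below -3; inactive = the rest.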

For this test, the target named is Metabotropic glutamate receptor 8 (Rattus norvegicus) (UniProt P70579). Kind of test: rat mGluR8 modulators via GIRK flux, primary screen, cell-based, thallium flux, HTS (AID 488969). As to conditions: HEK293 rat mGluR8, GIRK (G protein-gated inwardly rectifying potassium channel) thallium flux, FluoZin2; at 10 µM; stronger effect = higher value; submaximal glutamate (EC20) added with thallium.
Sequence of UniProt P70579 (P70579 whole entry, looked up): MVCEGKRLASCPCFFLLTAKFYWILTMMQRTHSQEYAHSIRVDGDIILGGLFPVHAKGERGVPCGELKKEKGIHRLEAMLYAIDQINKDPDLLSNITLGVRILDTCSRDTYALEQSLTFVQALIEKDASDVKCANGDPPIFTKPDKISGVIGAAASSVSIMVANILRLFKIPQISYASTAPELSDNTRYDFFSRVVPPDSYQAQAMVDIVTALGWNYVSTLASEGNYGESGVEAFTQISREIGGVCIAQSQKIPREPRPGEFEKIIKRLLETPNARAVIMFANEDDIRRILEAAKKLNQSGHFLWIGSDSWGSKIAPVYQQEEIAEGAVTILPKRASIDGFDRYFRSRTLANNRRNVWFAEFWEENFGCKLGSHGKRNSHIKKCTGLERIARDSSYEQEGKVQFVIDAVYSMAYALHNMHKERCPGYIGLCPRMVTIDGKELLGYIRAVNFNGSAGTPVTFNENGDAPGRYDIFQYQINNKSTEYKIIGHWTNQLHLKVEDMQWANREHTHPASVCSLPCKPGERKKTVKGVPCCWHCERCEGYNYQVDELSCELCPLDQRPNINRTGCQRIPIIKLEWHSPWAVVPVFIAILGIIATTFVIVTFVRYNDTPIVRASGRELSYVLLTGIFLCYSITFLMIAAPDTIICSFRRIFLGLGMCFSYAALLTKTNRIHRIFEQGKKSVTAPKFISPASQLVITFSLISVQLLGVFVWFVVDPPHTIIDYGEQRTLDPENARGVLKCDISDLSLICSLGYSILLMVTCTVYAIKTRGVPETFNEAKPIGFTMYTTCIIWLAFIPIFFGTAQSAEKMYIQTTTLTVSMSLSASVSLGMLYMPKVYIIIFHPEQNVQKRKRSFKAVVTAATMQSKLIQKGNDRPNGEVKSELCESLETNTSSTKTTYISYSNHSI
In the case of `CCOC(=O)c1c(NC(=O)c2cccnc2)sc(C)c1C`, the z-score is -1.59. In the case of `O=C(NCC(=O)N(Cc1ccc(F)cc1)C(C(=O)NC1CCCC1)c1ccco1)c1ccco1` (stereo unspecified) it was -0.201; in that of `CCc1c(C(=O)NNC(=S)NCCc2ccccc2)csc1C`, 0.117; in that of `Cc1cc(C)n(CC(O)Cn2c3ccccc3c3ccccc32)n1` (stereo unspecified), 0.376.

Molecule `O=C(OCC1CC(c2ccccc2)=NO1)c1ccc(Br)cc1` (stereo unspecified) showed a z-score of 0.507. Then `CCc1ccc(NC(=O)Nc2ccc3c(c2)N(C)C(=O)CS3)cc1`, with 0.0512; and `C=CCOc1cccc(C2c3c(oc4ccccc4c3=O)C(=O)N2c2ccccn2)c1` (stereo unspecified), with 1.94; and `CSCCC(NC(N)=O)C(=O)NCc1ccc(Cl)cc1` (stereo unspecified), with 0.0751.

`COC(=O)c1ccccc1NC(=O)CSc1nnc(-c2ccc(OC)cc2)n1C` came in with a z-score of 1.2. With `Cc1cc(C(=O)COC(=O)c2cc(Cl)ccc2N)c(C)n1Cc1ccco1`, the z-score was -0.451. `Cc1cc2nc3c(nc2cc1C)C1(C(=O)N(C)C)CCC3(C)C1(C)C` (stereo unspecified) yielded a z-score of -0.192. In the case of `Cn1c(=O)c(=O)n(C)c2cc(S(=O)(=O)N3CCCCCC3)ccc21`, the z-score is -1.42. Then `CC(=O)N(C)c1ccc(NC(=O)COc2ccc(Br)cc2C)cc1`, with -0.519; and `COC(=O)CSc1ncnc2c1sc1nc(N3CCOCC3)c3c(c12)CCCC3`, with -0.126; and `CC1CCN(C(=O)CSCc2ccc(Cl)cc2)CC1`, with -0.284. In the case of `C=CCn1c(=S)[nH]c2ccc(Br)cc2c1=O` it was active: 15; in that of `O=C(c1ccc(F)cc1)c1ccc(N2CCCC2)cc1`, -0.699.

Consider `CCOc1ccc(NC(=O)N2CCC(C(N)=O)(N3CCCCC3)CC2)cc1`, for which the z-score is -0.0579. In the case of `COc1ccc(CCn2c(N3CCN(C)CC3)nc3c2c(=O)[nH]c(=O)n3C)cc1` it was 0.18; in that of `O=C1CC(=O)N2N=C(c3ccc([N+](=O)[O-])cc3)SC2=N1`, -0.0424; in that of `Cn1c2ccccc2c2ncn(CCCN3CCOCC3)c(=O)c21`, -0.236. Then `CC1(C)CC(=O)C2=C(C1)N(c1ncn[nH]1)C(N)=C(C#N)C2c1ccccc1` (stereo unspecified), with -1.1; and `CCCCNC(=O)OCC(CC)NC(=O)OC(C)C` (stereo unspecified), with 0.755; and `O=[N+]([O-])c1cc(C(F)(F)F)ccc1N1CCN(S(=O)(=O)c2ccc3ccccc3c2)CC1`, with -0.295.

Turning to `c1ccc(-c2csc(N3CCN(c4ccccn4)CC3)n2)cc1`, the z-score was -0.124. Then `O=C(NCCCN1CCN(c2cccc(Cl)c2)CC1)C1CCC(=O)N1Cc1ccccc1Cl` (stereo unspecified), with -0.31. Molecule `CCN(Cc1cc2cc(OC)ccc2[nH]c1=O)C(=O)Cc1ccc(OC)cc1` registered a z-score of -0.165. Then `CCN(CC)c1nc2c3c(nc4c(c3c1C#N)CC(=O)N4c1ccc(Cl)cc1)NC(C)=N2`, with -0.314.

For the molecule `c1ccc(-n2ncc3c2ncn2nc(-c4ccco4)nc32)cc1`, the z-score was found to be 0.333. `COc1cc(/C=N/NC(=O)c2c(-c3ccccc3)noc2C)cc(OC)c1OC`: the z-score was -0.437.

Regarding `O=C(NCCCN1CCOCC1)c1cc2c(s1)CCC2`, the z-score is -0.0076. `CC1CC(C)(C)NC(=O)O1` (stereo unspecified) showed a z-score of -0.166.

`Cc1cc(C(=O)N/N=C/c2ccc(-c3cccc(Cl)c3Cl)o2)n[nH]1` had a z-score of -0.0988.

The molecule `CCOC(=O)c1nnc(-c2cccs2)nc1NC(C)C` registered a z-score of -1.51.

`COc1ccc(NC(=S)NCCc2c[nH]c3ccc(OC)cc23)c(OC)c1` registered a z-score of 0.294. In the case of `O=C(O)c1ccc(/C=N/Nc2nnnn2-c2ccccc2)cc1` it was -0.113; in that of `O=C(CCCOc1ccccc1)N1CCN(C(=O)c2ccco2)CC1`, -0.244. Consider `Cc1nc(N[C@@H](Cc2c[nH]c3ccccc23)C(=O)O)c2oc3ccccc3c2n1`, for which the z-score is -0.512.

Molecule `O=C(N/N=C/c1ccccn1)c1ccco1` displayed a z-score of 0.413. In the case of `Cc1ccc(C(=O)NNC(=O)CSc2nnc(-c3ccccc3)n2Cc2ccccc2)cc1` it was -0.425; in that of `COc1ccc(Br)cc1C1N2CC3(C)CN1CC(C)(C2)C3=O` (stereo unspecified), 0.9; in that of `COCCCN1C(=O)C(O)=C(C(=O)c2ccco2)C1c1ccc(Br)cc1` (stereo unspecified), -2.88. The molecule `COc1ccc(C(=O)/C=C(\C)NCc2ccc3c(c2)OCO3)cc1` showed a z-score of -0.271. As for `O=C(O)c1ccc(N2Cc3ccccc3C2)cc1O`, the z-score was -0.168. As for `CN(Cc1ccccc1)S(=O)(=O)c1ccc(NC(=S)NC(=O)C2CCCC2)cc1`, the z-score was -0.095. Then `CCCC1=C(C(=O)OCC)C(c2ccncc2)n2ncnc2N1` (stereo unspecified), with -0.252.

Consider `O=C(NCC1CCCO1)c1onc(CSc2ccc(F)c(F)c2)c1C(=O)O` (stereo unspecified), for which the z-score is -0.0992. On to `CC(C)c1ccc(NC(=O)c2snc3ccc(Cl)cc23)cc1`, for which the z-score is -0.116. In the case of `COc1ccc2c(c1)c1c(n2C(C)=O)C(OC(C)=O)=NCC1` it was -0.386. Then `COc1ccc2c(c1)N(C(=O)CN1C(=O)C3CCCCC3C1=O)C(C)(C)C=C2C` (stereo unspecified), with -0.463. In the case of `S=C(Nc1ccc(Br)cc1)NC1CCCCC1` it was 0.116. As for `C/C(=N/OC(=O)c1ccc(C)cc1)c1cccs1`, the z-score is -0.0962. Molecule `COC(=O)CC1C(=O)NCCN1C(=S)NC(=O)C(c1ccccc1)c1ccccc1` (stereo unspecified) displayed a z-score of -0.0622. In the case of `COc1cccc(C(=O)NNC2=CC(=O)CC(C)(C)C2)c1` it was -0.126; in that of `CCNCCOC(c1ccccc1)c1ccccc1`, 0.455; in that of `COc1ccc(-n2c(SCC(=O)Nc3cc(C)on3)nc3ccc(O)cc3c2=O)cc1OC`, -0.81. Then `CCc1ccccc1NC(=O)CSc1nc(-c2ccccc2)nn1C(=O)c1cccc([N+](=O)[O-])c1`, with -0.303; and `CCc1cc2c(N3CCN(c4ccccc4)CC3)ncnc2s1`, with -1.96; and `O=C(/C=C/c1ccc2c(c1)OCO2)Nc1c(C(=O)O)[nH]c2ccccc12`, with 0.14.

Molecule `CCNC(=S)SCCOc1ccccc1C` had a z-score of 0.21. Then `O=C(CCn1c(=O)[nH]c2ccsc2c1=O)N(CCc1ccccc1)Cc1ccccc1`, with -0.716.

With `CC(C)NC(=O)CCCC(=O)NC(C)C`, the z-score came to 0.492. In the case of `Cc1ccccc1NC(=O)CC1SCCNC1=O` (stereo unspecified) it was 0.875. In the case of `CCOC(=O)c1c(N)sc2c(O)c(Br)ccc12` it was 0.293; in that of `COc1ccc(C2NC(=O)C(C)S2)cc1` (stereo unspecified), -0.0287; in that of `CCNC(=O)CN(CCc1ccccc1)S(=O)(=O)c1ccc(OC)cc1`, -0.329.

As for `COC(=O)c1ccc(CNC(=O)/C=C/c2cc([N+](=O)[O-])ccc2OC(F)F)cc1`, the z-score was determined as 0.0959.

In turn, `Cc1cccc(-n2c(SCc3cc(=O)n4c(C)cccc4n3)nc3[nH]ncc3c2=O)c1` gave a z-score of -0.444. `CN(C)c1ccc(/C=N\NC(=S)SCN2C(=O)C3CCC(C)(C2=O)C3(C)C)cc1` (stereo unspecified) yielded a z-score of 1.74. Then `CC(C)OC(=O)c1cccc(-c2ccc(C=O)o2)c1`, with -0.582; and `Cc1cc(N/C=C\c2nnnn2-c2ccccc2)no1`, with -0.374. In the case of `COc1c(C)cc(S(=O)(=O)N2CCCC2)c(C)c1C` it was -0.203; in that of `CSc1nc2n(n1)C(c1ccccn1)C1=C(CC(C)(C)CC1=O)N2` (stereo unspecified), 0.0637; in that of `[O-]/[N+](=C\c1ccccc1)[C@@H]1CCCC[C@@H]1/[N+]([O-])=C/c1ccccc1`, -0.0225. In the case of `Oc1ccccc1/C=N/n1c2ccccc2c2ccccc21` it was -0.000452; in that of `Cc1ccc2c(c1)-c1c(cnn1CC(=O)N(CCC#N)c1ccccc1)CO2`, -0.347.

Take `Cc1cccc(OCc2ccc(C(=O)Nc3ccc(F)cc3)cc2)c1`: the z-score is 0.135. In the case of `CC(=O)C(=Nc1ccccc1Cl)NNc1ccc(Cl)cc1`, the z-score was determined as 1.22. Then `Cc1ccc2c(C)c(C(=O)Nc3cccnc3)oc2c1`, with -0.755; and `Brc1ccc2[nH]ncc2c1`, with 0.11. With `c1ccc(C2(Cn3ccc4ccccc43)OCCO2)cc1`, the z-score was -0.312.

Molecule `Cc1nc2ccccc2nc(C)c1=NOCc1ccc(Cl)cc1Cl` registered a z-score of 0.00903. Then `Clc1cccc(-c2nnc(-c3ccccc3)o2)c1`, with -0.158. Then `CC1=CC(C)=Nc2ccc(C)cc2N1`, with 0.00926; and `COc1ccc(S(=O)(=O)N2CCC(C(=O)N3CCCCC3)CC2)cc1OC`, with 0.0946. Then `COc1cc(C2C=C(Nc3ccccc3)C(=O)N2c2ccccc2)ccc1O` (stereo unspecified), with -0.176. For the molecule `CCCN1C(=O)CC(C(=O)OC)=C1C`, the z-score was determined as 0.406.

The molecule `c1ccc(-c2nccc(-c3ccc(-n4cnc5ccccc54)cc3)n2)nc1` yielded a z-score of -0.492. `C/C(N)=C(/C#N)C(=O)CSc1nnc(SCc2ccc(Cl)cc2)s1`: the z-score stood at 0.419. In the case of `O=C(COC(=O)C1COc2ccccc2O1)NC(=O)Nc1ccc2c(c1)OCCO2` (stereo unspecified) it was -0.545; in that of `CC1(C)N([O-])C(c2ccccc2)=C[N+](=O)C1(C)C`, -0.0764. In the case of `COc1ccc(-c2csc(NC(=O)c3cc(-c4cccs4)nc4ccccc34)n2)c(OC)c1` it was -0.102.

With `CC1CCCCC1NC(=O)/C(C#N)=C/c1ccccc1F` (stereo unspecified), the z-score is -0.268. In the case of `O=C(O)COc1ccccc1C(Nc1ccccn1)c1cc(Cl)c2cccnc2c1O` (stereo unspecified) it was -0.314; in that of `Cc1nn(CCCC(=O)Nc2cc(Oc3ccccc3)cc([N+](=O)[O-])c2)c(C)c1[N+](=O)[O-]`, 0.196.

As for `CC(NS(=O)(=O)c1ccc(CCC(=O)N2CCN(C)CC2)cc1)c1ccccc1` (stereo unspecified), the z-score was -0.349. `Cc1ccc(C23CC4CC(CC(CC(=O)N5CCOCC5)(C4)C2)C3)cc1` displayed a z-score of 0.0728. In the case of `COC(=O)c1c[nH]n2c(=O)cc(CCl)nc12` it was -0.195; in that of `O=C(O)CSCc1ccc(C(=O)O)o1`, 0.0165. Then `CC(C)CC(C(=O)NCC1CCCO1)N(C(=O)Cn1nnc(-c2ccc(F)cc2)n1)c1cccc(C(F)(F)F)c1` (stereo unspecified), with -0.289.

As for `Cc1ccccc1OCc1nc(-c2ccc(-n3cccc3)cc2)no1`, the z-score worked out at 0.0241.

For `COc1cc(C(=O)Nc2ccccc2C2COC(=O)C2=N)cc(OC)c1OC` (stereo unspecified), the z-score amounted to 0.336. In the case of `Cc1ccc(C2NC(=O)c3c(sc4c3CCN(C)C4)N2)o1` (stereo unspecified) it was -0.0144; in that of `COc1cc(S(=O)(=O)N2CCN(c3ccccc3F)CC2)c(OC)cc1Cl`, -0.354; in that of `COC(=O)c1ccccc1N1C(=O)[C@@H]2C(c3ccc(Br)cc3)=NO[C@@H]2C1=O`, -0.236.

Take `CC1CN(S(=O)(=O)N(C)C)CCN1S(=O)(=O)N(C)C` (stereo unspecified): the z-score was -0.225.

As for `O=C(NC1CC1)c1c[nH]c2ccc(S(=O)(=O)Nc3cccc(C(F)(F)F)c3)cc2c1=O`, the z-score was -0.0343. Consider `CN(C)S(=O)(=O)N1CCN(c2cccc(Cl)c2)CC1`, for which the z-score was 0.0618.

In the case of `Cc1ccc(S(=O)(=O)N(CC(=O)Nc2cccc([N+](=O)[O-])c2)C2CCCCC2)cc1`, the z-score is -0.327. Then `Cc1ccc(S(=O)(=O)Oc2ccc(/C=N/NC(=O)c3nn(C)cc3Cl)cc2)cc1`, with -0.86; and `O=C(Cn1c(=O)n2ncnc2c2c3c(sc21)CCCC3)c1ccccc1`, with -0.405.

The values above are taken from PubChem BioAssay AID488969 (Vanderbilt High Throughput Screening Facility, 2010).
